{"source": "PubChem BioAssay AID761", "about": "(NMMLSC, 2007)", "note": "In all, about 190,000 compounds went through this assay and about 400 (0.21%) were called active. The shares of active, inactive and inconclusive entries below differ from those in the screen.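 The calls were made as follows: active = percent activity GTP binding at least 20 points away from the 100% baseline, either down as inhibitor or up as activator; inconclusive = compound flagged as likely green fluorescent from well-wide comparison; inactive = the rest.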", "data": [{"biological_target": "Cell division control protein 42 homolog (Homo sapiens) (UniProt P60953)", "sequence (P60953 whole entry, looked up)": "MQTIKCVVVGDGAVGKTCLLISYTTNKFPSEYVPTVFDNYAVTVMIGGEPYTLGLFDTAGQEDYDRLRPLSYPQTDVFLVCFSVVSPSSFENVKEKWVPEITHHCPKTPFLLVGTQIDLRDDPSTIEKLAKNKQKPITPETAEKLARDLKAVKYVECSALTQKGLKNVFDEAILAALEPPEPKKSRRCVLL", "assay": "wildtype Cdc42 fluorescent GTP binding changes, either direction – biochemical, multiplex bead flow cytometry, Bodipy-GTP, primary screen (AID 761);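 also: median bead fluorescence of bound Bodipy-FL-GTP at 100 nM; 0% = excess unlabeled GTP control and 100% = no compound control; below 100% means less GTP binding so inhibitor and above means activator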", "details": "GST-Cdc42 beads, at 10 µM, actives lie on both sides", "values": [{"molecule": "O=C1c2ccccc2-c2nc3ccccc3nc21", "percent activity (GTP binding)": "inconclusive: 91%"}, {"molecule": "O=C(CSc1ccccc1)Nc1ccc(NC(=O)c2ccco2)cc1", "percent activity (GTP binding)": "inactive: 100%"}, {"molecule": "Cc1nn(-c2ccccc2)c(Cl)c1C(=O)Nc1c(C)n(C)n(-c2ccccc2)c1=O", "percent activity (GTP binding)": "inconclusive: 91%"}, {"molecule": "CN1/C(=C/C(=S)NC(=O)C2(C)CC2(Cl)Cl)C(C)(C)c2ccccc21", "note": "(stereo unspecified)", "percent activity (GTP binding)": "inconclusive: 101%"}, {"molecule": "CCOc1ccccc1-n1nnnc1SCC(=O)Nc1cc(C)on1", "percent activity (GTP binding)": "inconclusive: 105%"}, {"molecule": "Cc1cc(-c2ccc3ccccc3c2)n2ncnc2n1", "percent activity (GTP binding)": "inactive: 92%"}, {"molecule": "O=S(=O)(NCc1ccccn1)c1ccccc1", "percent activity (GTP binding)": "inconclusive: 103%"}, {"molecule": "O=C(NNC(=O)C1CCN(S(=O)(=O)c2ccc(Cl)cc2)CC1)c1ccc(Cl)cc1", "percent activity (GTP binding)": "inconclusive: 106%"}, {"molecule": "Cc1nn(C)c(C(=O)NNC(=S)NC2CCCCC2)c1Cl", "percent activity (GTP binding)": "inconclusive: 97%"}, {"molecule": "COCCCNc1nc(=S)[nH]c2cc(OC)c(OC)cc12", "percent activity (GTP binding)": "inconclusive: 64%"}, {"molecule": "Cc1cc(NC(=O)c2cccc(C(=O)Nc3cc(C)on3)n2)no1", "percent activity (GTP binding)": "active: 79%"}, {"molecule": "CCN1/C(=C\\C=C2\\C(=O)N(C)C(=S)N2C)Sc2ccccc21", "percent activity (GTP binding)": "inactive: 97%"}, {"molecule": "O=C(Nc1cccc2nsnc12)c1ccc(-c2ccc(Br)cc2)o1", "percent activity (GTP binding)": "inconclusive: 94%"}, {"molecule": "O=C1C2C3C=CC(C3)C2C(=O)N1c1ccc(N2CCN(c3ccccn3)CC2)c([N+](=O)[O-])c1", "note": "(stereo unspecified)", "percent activity (GTP binding)": "inactive: 94%"}, {"molecule": "CCC1(CC)NC(=O)N(CC(=O)OCC(=O)NC(=O)c2ccccc2)C1=O", "percent activity (GTP binding)": "inactive: 101%"}, {"molecule": "O=C(NCc1ccco1)C1CC(=O)N(c2ccc(O)cc2)C1", "note": "(stereo unspecified)", "percent activity (GTP binding)": "inconclusive: 96%"}, {"molecule": "O=c1oc2ccc3ccccc3c2cc1-c1nnc(-c2ccccc2)o1", "percent activity (GTP binding)": "inconclusive: 95%"}, {"molecule": "Nc1ccc(-c2cn3cccnc3n2)cc1", "percent activity (GTP binding)": "active: 79%"}, {"molecule": "CC(C)N(C(=O)CSc1nnc(Cc2csc(Nc3ccccc3)n2)o1)C(C)C", "percent activity (GTP binding)": "inactive: 101%"}, {"molecule": "CC(Nc1ccc2c(c1)OCCO2)C(=O)N1c2ccccc2CC1C", "note": "(stereo unspecified)", "percent activity (GTP binding)": "inactive: 99%"}, {"molecule": "O=C1NC(=S)N/C1=C/c1cc([N+](=O)[O-])ccc1O", "percent activity (GTP binding)": "inconclusive: 85%"}, {"molecule": "O=C(COc1ccccc1[N+](=O)[O-])Nc1cc(Cl)ccc1C(=O)O", "percent activity (GTP binding)": "inactive: 80%"}, {"molecule": "COC(=O)c1ccc2nc(Nc3nc4c(F)cc(F)cc4s3)sc2c1", "percent activity (GTP binding)": "inactive: 82%"}, {"molecule": "Cc1ccn2c(NCc3ccc4c(c3)OCO4)c(-c3ccc(O)cc3)nc2c1", "percent activity (GTP binding)": "active: 145% [activator]"}, {"molecule": "COc1cc2[nH]c(=S)nc(Nc3ccc(NC(C)=O)cc3)c2cc1OC", "percent activity (GTP binding)": "inconclusive: 42%"}, {"molecule": "Cc1cccc(-n2nc(CC#N)c(C#N)c2N)c1", "percent activity (GTP binding)": "inactive: 82%"}, {"molecule": "Fc1ccccc1COc1ccc2ccccc2c1CNc1nn[nH]n1", "percent activity (GTP binding)": "inactive: 90%"}, {"molecule": "Cc1ccnc(N2C(=O)OC(C)(C)C2(C)O)c1", "note": "(stereo unspecified)", "percent activity (GTP binding)": "inconclusive: 105%"}, {"molecule": "O=C(NCCOCCNC(=O)OCc1ccccc1)OCc1ccccc1", "percent activity (GTP binding)": "inactive: 96%"}, {"molecule": "CC1=NNC(=O)C1CCC(=O)N/N=C(/C)c1ccc([N+](=O)[O-])cc1", "note": "(stereo unspecified)", "percent activity (GTP binding)": "inconclusive: 104%"}, {"molecule": "O=C(O)COc1ccc(Br)cc1/C=C1/SC(=O)N(CC(=O)N2CCCC2)C1=O", "percent activity (GTP binding)": "inconclusive: 101%"}, {"molecule": "Cc1ccc(NC(=O)CN2C(=O)C3C4C=CC(C4)C3C2=O)cc1S(=O)(=O)N(C)C", "note": "(stereo unspecified)", "percent activity (GTP binding)": "inconclusive: 100%"}, {"molecule": "O=C(N/N=C/c1ccc(OCc2ccccc2)cc1)c1cc[n+](Cc2ccccc2)cc1", "percent activity (GTP binding)": "inconclusive: 104%"}, {"molecule": "Cc1ccc(C)c(N2CCN(C(=O)c3ccc4nc(-c5ccco5)c(-c5ccco5)nc4c3)CC2)c1", "percent activity (GTP binding)": "inconclusive: 87%"}, {"molecule": "CCCN(CCC)CCNS(=O)(=O)c1ccc2c(c1)oc(=O)n2C", "percent activity (GTP binding)": "inconclusive: 106%"}, {"molecule": "CCOc1ccc(CCNc2ccc3nnc(-c4ccccc4)n3n2)cc1OCC", "percent activity (GTP binding)": "active: 79%"}, {"molecule": "N#CC1=C(N)N(c2ncn[nH]2)C2=C(C(=O)CCC2)C1c1ccccc1", "note": "(stereo unspecified)", "percent activity (GTP binding)": "inconclusive: 94%"}, {"molecule": "O=C(CSc1nc2cc(Cl)ccc2s1)c1ccco1", "percent activity (GTP binding)": "inconclusive: 95%"}, {"molecule": "S=C(c1ccc2c(c1)OCO2)N1CCCCC1", "percent activity (GTP binding)": "inconclusive: 104%"}, {"molecule": "O=C(Nc1sc2c(c1C(=O)O)CCCCC2)c1ccccc1", "percent activity (GTP binding)": "active: 78%"}, {"molecule": "CC(CCc1ccccc1)NC(=O)CN1CCSc2ccccc21", "note": "(stereo unspecified)", "percent activity (GTP binding)": "inactive: 97%"}, {"molecule": "COC(=O)CSc1nc2cc(Cl)ccc2c(=O)n1C1CCCC1", "percent activity (GTP binding)": "active: 79%"}, {"molecule": "O=C(Nc1cccc2ccccc12)N1CCN(Cc2ccccc2)CC1", "percent activity (GTP binding)": "inconclusive: 93%"}, {"molecule": "Cc1nc(Cl)c2c(n1)NC1=C(O2)C(=O)CCC1", "percent activity (GTP binding)": "inactive: 100%"}, {"molecule": "Cc1cc(C(=O)COC(=O)c2nc3nccc(C)n3n2)c(C)n1CC1CCCO1", "note": "(stereo unspecified)", "percent activity (GTP binding)": "inconclusive: 92%"}, {"molecule": "Cc1cc(CN(C)Cc2c(C(=O)N3CCCCCCC3)nc3ccc(Cl)cn23)n[nH]1", "percent activity (GTP binding)": "inactive: 96%"}, {"molecule": "S=C(NC1CCCCC1)N1CCN(Cc2ccccc2Cl)CC1", "percent activity (GTP binding)": "inactive: 97%"}, {"molecule": "C=CCn1c(CNc2ccc(C)cc2)nnc1SCC(=O)N/N=C/c1ccc(O)cc1O", "percent activity (GTP binding)": "inconclusive: 90%"}, {"molecule": "COCCOC(=O)C1=C(C)OC(N)=C(C#N)C1c1cc2cccc(C)c2nc1Cl", "note": "(stereo unspecified)", "percent activity (GTP binding)": "inconclusive: 94%"}, {"molecule": "CCCCCOC(=O)c1ccccc1C(=O)O", "percent activity (GTP binding)": "inconclusive: 136%"}, {"molecule": "CC(=O)Nc1ccc(S(=O)(=O)Nc2nc3ccccc3nc2Nc2ccccc2)cc1", "percent activity (GTP binding)": "inconclusive: 95%"}, {"molecule": "CCN(CC)c1ccc(CNCc2cccs2)cc1", "percent activity (GTP binding)": "inconclusive: 95%"}, {"molecule": "CC(C)CNS(=O)(=O)c1ccc(CCC(=O)O)cc1", "percent activity (GTP binding)": "inconclusive: 93%"}, {"molecule": "Cc1cc(N2CCOCC2)n2cc(-c3ccccc3)nc2n1", "percent activity (GTP binding)": "inconclusive: 90%"}, {"molecule": "O=C(NCCCN1CCCCCC1)c1ccc(N2CCCC2=O)cc1", "percent activity (GTP binding)": "inconclusive: 102%"}, {"molecule": "N#C/C(=N\\Nc1ccccc1[N+](=O)[O-])C(=N)N1CCCCC1", "percent activity (GTP binding)": "inconclusive: 96%"}, {"molecule": "Cc1cc(C)n(C(=O)CNC(=O)c2ccc3c(c2)OCCO3)n1", "percent activity (GTP binding)": "active: 34%"}, {"molecule": "Cc1nc2ccc(NC(=O)COc3ccccc3)cc2s1", "percent activity (GTP binding)": "inconclusive: 292%"}, {"molecule": "Cc1cc(C)c(S(C)(=O)=O)c(NN)n1", "percent activity (GTP binding)": "inconclusive: 109%"}, {"molecule": "COc1ccc(C)cc1NC(=O)Nc1ccccc1SC", "percent activity (GTP binding)": "inactive: 98%"}, {"molecule": "Cc1nc2ccc(NC(=O)c3ccc4ccccc4n3)cc2s1", "percent activity (GTP binding)": "inconclusive: 90%"}]}]}
